{"source": "PubChem BioAssay (NCI)", "note": "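Test compounds were applied to cells in 96-well plates for 48 hours at 5 doses. Abbreviation: GI50, concentration required for 50% inhibition of growth. The concentration for full growth arrest is given as TGI.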"}
{"tested_on": "NCI-H322M lung", "assay": "NCI tumour cell line growth inhibition, 48 h", "units": {"GI50": "µM", "TGI": "µM"}}
{"smiles": "O=C(Nc1ccccc1O)c1ccc(CNC(=O)c2ccsc2Nc2ccnc(C(F)(F)F)c2)cc1", "GI50": 3, "TGI": 39.8}
{"smiles": "Cc1ccc(/C=C2\\CN(C)CC3C2=NC(=S)NC3c2ccc(C)cc2)cc1", "note": "(centres undefined)", "TGI": "> 100"}
{"smiles": "Cc1ccc2c(c1)CC1(C2=O)[C@H](c2ccccc2)C2C(=O)c3ccc(C)cc3C2[C@H]1c1ccccc1", "note": "(some centres undefined)", "TGI": "> 100"}
{"smiles": "COc1ccccc1/C=C\\C(=O)c1ccccc1", "GI50": 17.4, "TGI": 32}
{"smiles": "CC1=C2NCN(C)N=C2C(C#N)(C#N)C1(C#N)C#N", "TGI": "> 100"}
{"smiles": "C/C(=N/NC(=O)CC(=O)N(C(=O)c1ccccc1Cl)c1ccc(C)cc1)c1cc2ccccc2oc1=O", "TGI": "> 100"}
{"smiles": "O=c1c2c(nc3n1CCC3)sc1c(O)c(Br)ccc12", "TGI": 59.1}
{"smiles": "CC12CC(C/C1=N/O)C(C)(C)C2", "note": "(centres undefined)", "TGI": "> 100"}
{"smiles": "C=CC1=CC(C)C[C@]1(O)C(=O)OC", "note": "(some centres undefined)", "GI50": "> 100"}
{"smiles": "OC12CCCCCC1(N1CCOCC1)c1ccccc12", "note": "(centres undefined)", "TGI": "> 100"}
{"smiles": "CCOC(=O)CCCn1cc(C(=O)OC)nn1", "TGI": "> 100"}
{"smiles": "Cc1c(C(=O)OCc2ccccc2)[n+](=O)c2cc(F)c(F)cc2n1[O-]", "TGI": 4.8}
{"smiles": "COc1ccc(C(=O)c2ccc(-n3cc(/C=C/[N+](=O)[O-])c4ccccc43)cc2)cc1", "TGI": "> 100"}
{"smiles": "O=C(CCN1CCCC1)Nc1ccc2c(Nc3ccccc3)c3ccccc3nc2c1", "GI50": 0.72, "TGI": 2.79}
{"smiles": "Fc1cc(-c2nnc3n2N=C(c2ccc(Cl)cc2Cl)CS3)c(Cl)cc1Cl", "GI50": 76.4, "TGI": "> 100"}
